Tests used:
[1] = molecular target: T1, human LAG-3 ECD with mouse Fc tag (W339-hPro1.ECD.mFc) (human, UniProt P18627 23-450); test: ELISA competition, blocking of mouse Fc-tagged LAG-3 binding to coated human FGL-1 (competitor FGL-1)
T1 construct: extracellular domain; also called W339-hProl.ECD.mFc; recombinant human LAG-3 protein
T1 sequence (looked up): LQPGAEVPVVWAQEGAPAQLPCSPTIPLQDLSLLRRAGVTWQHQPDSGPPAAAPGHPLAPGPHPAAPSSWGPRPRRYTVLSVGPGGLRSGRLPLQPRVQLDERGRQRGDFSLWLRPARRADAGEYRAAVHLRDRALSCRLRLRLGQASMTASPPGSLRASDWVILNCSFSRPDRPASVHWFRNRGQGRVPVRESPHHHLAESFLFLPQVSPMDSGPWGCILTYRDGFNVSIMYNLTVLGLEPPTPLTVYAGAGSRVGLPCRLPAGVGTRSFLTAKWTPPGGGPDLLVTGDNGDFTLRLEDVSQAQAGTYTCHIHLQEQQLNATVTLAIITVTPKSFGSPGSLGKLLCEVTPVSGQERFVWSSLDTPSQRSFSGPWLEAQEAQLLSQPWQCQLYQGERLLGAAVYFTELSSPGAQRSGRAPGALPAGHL
Protocol: After blocking and washing, the mixture was transferred to the plates and incubated at room temperature for 1 h. […] After washing, TMB substrate was added and the color reaction was stopped by 2M HCl. The absorbance at 450 nm was read using a microplate reader.

[2] = molecular target: T2, human LAG-3, full length, on cells (W339-FlpIn293.hPro1.A3) (human, UniProt P18627 23-525); test: FACS on human LAG-3-expressing 293 cells, PE anti-human IgG detection
T2 construct: whole, on cells; Jurkat cells in the reporter assay; also called human LAG-3 transfected 293 cells; LAG-3 expressing cells
T2 sequence (looked up): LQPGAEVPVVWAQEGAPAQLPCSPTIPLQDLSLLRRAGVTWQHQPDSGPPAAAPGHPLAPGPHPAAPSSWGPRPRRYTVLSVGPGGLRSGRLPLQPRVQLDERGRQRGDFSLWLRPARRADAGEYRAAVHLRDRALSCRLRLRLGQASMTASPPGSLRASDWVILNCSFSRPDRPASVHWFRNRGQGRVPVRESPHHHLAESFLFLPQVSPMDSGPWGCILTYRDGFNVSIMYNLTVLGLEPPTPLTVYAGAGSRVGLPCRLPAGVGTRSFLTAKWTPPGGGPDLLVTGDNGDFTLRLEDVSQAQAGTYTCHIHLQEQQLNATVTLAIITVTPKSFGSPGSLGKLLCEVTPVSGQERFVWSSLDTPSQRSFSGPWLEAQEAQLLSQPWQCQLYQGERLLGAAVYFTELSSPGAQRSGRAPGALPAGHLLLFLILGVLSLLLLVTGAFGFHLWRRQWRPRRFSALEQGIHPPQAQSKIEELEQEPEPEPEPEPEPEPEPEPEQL
Protocol: MFI of the cells was measured by flow cytometry and analyzed by FlowJo.

[3] = molecular target: T3, human PD-L1 ECD with mouse Fc tag (W315-hPro1.ECD.mFc) (human, UniProt Q9NZQ7 part only); test: ELISA, plate coated with human PD-L1 ECD-mFc, HRP anti-human IgG detection
T3 construct: extracellular domain; also called W315-hProl.ECD.mFc; recombinant human PD-L1 protein
Protocol: (§1) After washing, TMB substrate was added and the color reaction was stopped by 2M HCl. The absorbance at 450 nm was read using a microplate reader.

[4] = molecular target: T1, human LAG-3 ECD with mouse Fc tag …; test: FACS competition, blocking of mFc-tagged LAG-3 binding to MHC-II on Raji cells (competitor MHC-II)
Protocol: The mixture was transferred into the 96-well plates seeded with Raji cells. Goat anti-mouse IgG Fc-PE antibody was used to detect the binding of LAG-3 protein to Raji cells. The MFI was evaluated by flow cytometry and analyzed by the software FlowJo.

[5] = molecular target: T4, human LAG-3 ECD with His tag (W339-hPro1.ECD.His) (human, UniProt P18627 23-450); test: dual binding ELISA after 14 days in human serum at 37 C: antibody on captured human LAG-3 ECD-His, detected with biotin-labelled human PD-L1 ECD-mFc
T4 construct: extracellular domain; also called W339-hProl.ECD.His; human LAG-3 protein
T4 sequence (looked up): T1 sequence (looked up)
Protocol: as §1

[6] = molecular target: T4, human LAG-3 ECD with His tag …; test: dual binding ELISA after 0 days in human serum at 37 C: antibody on captured human LAG-3 ECD-His, detected with biotin-labelled human PD-L1 ECD-mFc
Protocol: as §1

human CD4 = human CD4 (human, UniProt P01730 part only, limits assumed); test: ELISA, plate coated with human CD4
Protocol: Plates were coated with human CD4 at 1 μg/ml overnight at 4° C. […] The plates were then washed and subsequently incubated with corresponding secondary antibody for 60 min. After washing, TMB substrate was added and the color reaction was stopped by 2M HCl. The absorbance at 450 nm was read using a microplate reader.

[7] = molecular target: T5, human PD-L1, full length, on CHO-K1 cells (W315-CHO-K1.hPro1.C11) (human, UniProt Q9NZQ7); test: FACS competition, blocking of mFc-tagged PD-1 (competitor) binding to PD-L1-expressing CHO-K1 cells
T5 construct: whole, on cells; also called human PD-L1-expressed CHO-K1 cells; PD-L1 expressing cells
Protocol: The MFI was evaluated by flow cytometry and analyzed by the software FlowJo.

[8] = molecular target: T6, human LAG-3 protein (SPR analyte) (human, UniProt P18627 23-450, limits assumed); test: SPR (Biacore 8K), antibody captured on anti-human IgG Fc chip, antigen as analyte, 1:1 fit
T6 sequence (looked up): T1 sequence (looked up)
Text: (§2) The sensorgrams of blank surface and buffer channel were subtracted from the test sensorgrams. The experimental data was fitted by 1:1 model using Langmiur analysis.

[9] = molecular target: T7, mouse LAG-3 protein (SPR analyte) (mouse, UniProt Q61790 24-442, limits assumed); test: as above
T7 sequence (looked up): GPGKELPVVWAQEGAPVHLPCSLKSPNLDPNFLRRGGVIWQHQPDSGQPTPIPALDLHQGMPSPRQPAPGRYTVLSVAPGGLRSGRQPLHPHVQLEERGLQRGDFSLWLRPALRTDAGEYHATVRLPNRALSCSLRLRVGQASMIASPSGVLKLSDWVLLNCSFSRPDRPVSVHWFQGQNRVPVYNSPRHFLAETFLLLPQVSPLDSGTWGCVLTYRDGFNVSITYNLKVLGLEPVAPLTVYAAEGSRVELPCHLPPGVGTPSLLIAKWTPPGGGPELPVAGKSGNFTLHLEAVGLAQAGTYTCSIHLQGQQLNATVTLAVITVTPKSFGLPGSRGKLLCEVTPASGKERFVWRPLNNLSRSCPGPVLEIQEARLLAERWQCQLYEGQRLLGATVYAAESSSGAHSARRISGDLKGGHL
Text: as §2

[10] = molecular target: mouse PD-L1 protein (SPR analyte) (mouse, UniProt Q9EP73 part only, limits assumed); test: as above
Text: as §2

[11] = molecular target: cyno PD-L1 protein (SPR analyte) (cynomolgus, UniProt G7PSE7 19-238); test: as above
UniProt G7PSE7, sequence (G7PSE7 entry or part of it): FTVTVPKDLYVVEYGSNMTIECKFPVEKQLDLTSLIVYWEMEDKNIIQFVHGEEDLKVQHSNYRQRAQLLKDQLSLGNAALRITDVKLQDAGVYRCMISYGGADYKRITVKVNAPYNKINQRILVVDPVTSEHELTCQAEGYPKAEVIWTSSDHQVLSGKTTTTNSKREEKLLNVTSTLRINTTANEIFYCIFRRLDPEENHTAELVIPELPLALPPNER
Text: as §2

[12] = molecular target: human PD-L1 protein (SPR analyte) (human, UniProt Q9NZQ7 part only, limits assumed); test: as above
Text: as §2

[13] = molecular target: T8, cynomolgus LAG-3 protein (Sino-90841-C08H) (cynomolgus); test: ELISA, cynomolgus LAG-3-His captured by coated anti-His, HRP anti-human IgG detection
T8 construct: Bought; also called recombinant cyno LAG-3 protein

[14] = molecular target: T9, mouse PD-L1 ECD with mouse Fc tag (W315-mPro1.ECD.mFc) (mouse, UniProt Q9EP73 part only); test: ELISA, plate coated with mouse PD-L1 ECD-mFc, HRP anti-human IgG detection
T9 construct: extracellular domain; also called W315-mProl.ECD.mFc; recombinant mouse PD-L1 protein
Protocol: as §1

[15] = molecular target: T4, human LAG-3 ECD with His tag …; test: dual binding ELISA after 4 days in human serum at 37 C: antibody on captured human LAG-3 ECD-His, detected with biotin-labelled human PD-L1 ECD-mFc
Protocol: as §1

[16] = molecular target: T4, human LAG-3 ECD with His tag …; test: dual binding ELISA: antibody titrated on human LAG-3 ECD-His captured by anti-His, detected with biotin-labelled human PD-L1 ECD-mFc and HRP-streptavidin
Protocol: as §1

[17] = molecular target: T4, human LAG-3 ECD with His tag …; test: dual binding ELISA after 7 days in human serum at 37 C: antibody on captured human LAG-3 ECD-His, detected with biotin-labelled human PD-L1 ECD-mFc
Protocol: as §1

[18] = molecular target: T4, human LAG-3 ECD with His tag …; test: dual binding ELISA after 1 day in human serum at 37 C: antibody on captured human LAG-3 ECD-His, detected with biotin-labelled human PD-L1 ECD-mFc
Protocol: as §1

[19] = molecular target: T1, human LAG-3 ECD with mouse Fc tag …; test: ELISA, human LAG-3 ECD-mFc captured by coated goat anti-mouse F(ab)2, HRP anti-human IgG detection
Protocol: as §1

IC50 [1]: 7.53 nM
EC50 [2]: 0.735 nM
EC50 [3]: 0.025 nM
IC50 [4]: 1.65 nM
EC50 [5]: 0.04 nM
EC50 [6]: 0.04 nM
binding result (human CD4): no binding (tested: 67 nM)
IC50 [7]: 0.11 nM
Kd [8]: 0.441 nM
koff [8]: 2.3e-05 s⁻¹
kon [8]: 52200 M⁻¹ s⁻¹
Kd [9]: < 0.00575 nM
koff [9]: < 1e-05 s⁻¹
kon [9]: 1.74e+06 M⁻¹ s⁻¹
Kd [10]: 20.7 nM
koff [10]: 0.0101 s⁻¹
kon [10]: 489000 M⁻¹ s⁻¹
Kd [11]: 0.518 nM
koff [11]: 0.000458 s⁻¹
kon [11]: 884000 M⁻¹ s⁻¹
Kd [12]: 0.35 nM
koff [12]: 0.000284 s⁻¹
kon [12]: 812000 M⁻¹ s⁻¹
EC50 [13]: 0.25 nM
EC50 [14]: 0.05 nM
EC50 [15]: 0.04 nM
EC50 [16]: 0.293 nM
EC50 [17]: 0.05 nM
EC50 [18]: 0.04 nM
EC50 [19]: 3.07 nM
B1: W3669-U15T4.G1-1.uIgG1LALA (bispecific antibody)
chain: EVQLVESGGGLVQPGGSLRLSCAASGHFSNLAVNWFRQAPGKERELVAGILWSGGSTFYADSVKGRFTISRGNAENMLYLQMNSLRAEDTAVYYCNTGTNWGQGTLVTVSS[human IgG1 Fc with changes left out]GGGGSGGGGSGGGGSGGGGSGGGGSGGGGSGGGGSQVQLVESGGGVVQPGGSLRLSCAASGLTLSQYTMGWFRQAPGKERELVAAIHWTSSVTDYADSVYGRFTISRDDSKNTGYLQMNSLRAEDTAVYYCAATHYYTHRGPFDYWGQGTLVTVSS
notes: Humanized llama VHHs on a human IgG1 Fc with L234A L235A; also called W3669 antibody; W3669 bispecific antibody

— patent US20220348664A1 (WUXI BIOLOGICS IRELAND, published 2022)
